Substrate: Cc1c(S(=O)(=O)O)oc2c1C(=O)C(=O)c1c-2ccc2c1CCCC2(C)C
Experiment: not read
Details: other: STS metabolism, CYP3A4 isoform 10 pmol, mean ± SD; pH 7.4; 37.0 °C

B1: CYP3A4 (Homo sapiens) (protein)
chain: MALIPDLAMETWLLLAVSLVLLYLYGTHSHGLFKKLGIPGPTPLPFLGNILSYHKGFCMFDMECHKKYGKVWGFYDGQQPVLAITDPDMIKTVLVKECYSVFTNRRPFGPVGFMKSAISIAEDEEWKRLRSLLSPTFTSGKLKEMVPIIAQYGDVLVRNLRREAETGKPVTLKDVFGAYSMDVITSTSFGVNIDSLNNPQDPFVENTKKLLRFDFLDPFFLSITVFPFLIPILEVLNICVFPREVTNFLRKSVKRMKESRLEDTQKHRVDFLQLMIDSQNSKETESHKALSDLELVAQSIIFIFAGYETTSSVLSFIMYELATHPDVQQKLQEEIDAVLPNKAPPTYDTVLQMEYLDMVVNETLRLFPIAMRLERVCKKDVEINGMFIPKGVVVMIPSYALHRDPKYWTEPEKFLPERFSKKNKDNIDPYIYTPFGSGPRNCIGMRFALMNMKLALIRVLQNFSFKPCKETQIPLKLSLGGLLQPEKPVVLKVESRDGTVSGA
B1 gave a Km of 7.5 ± 1.4 µM and a kcat of 6.8 ± 0.3 nmol/nmol P450/min.

From paper PMC4802617, “Kinetics of cytochrome P450 enzymes for metabolism of sodium tanshinone IIA sulfonate in vitro” (Chinese Medicine, 2016)
